Source: a compilation of properties of binary mixtures (doi:10.1021/ie3024752)
The densities may have been worked out from excess volumes.

Experiment: xn = mol fraction of the nth substance listed
Settings: 100 kPa

CCCC[n+]1ccn(C)c1.N#C[N-]C#N + OC[C@@H](O)[C@@H](O)[C@H](O)[C@@H](O)C=O
x2 = 0
Settings	mass density [kg/m3]
298 K	1060.6
313 K	1051.1
328 K	1041.7
343 K	1032.4

O=C[C@H](O)[C@@H](O)[C@H](O)[C@H](O)CO + CCCC[n+]1ccn(C)c1.N#C[N-]C#N
mass density [kg/m3]
Settings	x1 = 0.0313	x1 = 0.0937	x1 = 0.1849	x1 = 0.228	x1 = 0.2474
298 K	1069.4	1087.2	1115.7	–	1137.3
313 K	1059.9	1077.7	1106.1	1119.4	1127.8
328 K	1050.5	1068.4	1096.6	1109.9	–
343 K	1041.2	1059.1	1087.3	1100.4	1108.9
